The text below walks through data of the supplement of paper PMC11417369.

Some of the results follow.

The test concerns PfSIP2 AP2 domain 1 (GST-tagged). Put plainly: gcPBM binding intensity (ln(normalized median fluorescence intensity)); higher = stronger DNA binding. The essentials:
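Binding intensity is defined as the maximum Masliner-normalised natural-log median intensity across replicate spots for either probe orientation. It was measured on an Agilent 4 × 180k array of primer-extended double-stranded 36-bp intergenic genomic probes and negative controls, to which GST-tagged P. falciparum DNA-binding domains made in E. coli were applied for 1 h in 1× PBS with 1% milk, 0.2 mg/ml BSA, 0.5% salmon testes DNA and 0.03% Triton X-100. Detection was by Alexa488 anti-GST antibody and scanning at 488 nm.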
In the case of “TTTTCTAAAATGAATTGTACTTGATTATTTAAAAAA [XGTACX_site6097]”, the “gcPBM binding intensity (ln)” value came to 6.71.
The value for “TAAAAAATGAAAAAGCGTACATGTTTTCTTATATTA [XGTACX_site1722]” was 6.87; that for “ATACTAAAAAGTATCTGTACTTATTTTAAAAATAAA [XGTACX_site4116]” was 7.08; that for “TAAATAATTAAAATATGTACTGAAATGTAATTATTT [XGTACX_site5894]” was 6.85.
For the sequence “TATTTACTTATATGCACACATAAATGTGAATTATGG [CACACA_site3777]”, the “gcPBM binding intensity (ln)” value turned out to be 7.47.
“TGTATCATAAAAATAACACACGTATTTTTTTTTATT [CACACA_site1050]”: the “gcPBM binding intensity (ln)” value came to 6.94.
Regarding “AGTATAAAATAAATGTGTACACAAGAAAATATGTTA [XGTACX_site8381]”, the “gcPBM binding intensity (ln)” value stood at 7.47.
To “AAAATCACAAGACACACACACACAAAAAAAAAAAAA [CACACA_site6791]” belongs 7.02.
With “ATATATATATGTATGTGTCCACAAGGAGATATATAT [XGTACX_site783]”, the “gcPBM binding intensity (ln)” value was 8.4.
In the case of “AAAATATTTTAATGTTGTACATTAATATATTATATA [XGTACX_site2513]”, the “gcPBM binding intensity (ln)” value was 6.92.
“AGTAAATAATAGATCGCATGTAATAACTAGTAGGAA [TGCATGCA_site948]”: the “gcPBM binding intensity (ln)” value worked out at 7.
For “ACAATTGAAGAAATACGTACATAAAGAAAAACTAGT [XGTACX_site820]”, the “gcPBM binding intensity (ln)” value is 7.37.
On to “ATTATAAAGACATATACACACATACGTACATACATA [CACACA_site5893]”, for which the “gcPBM binding intensity (ln)” value worked out at 7.22.
To “TACATAAATATATGTGTGCACAATTTCGTATATTTA [GTGCAC_site9859]” belongs 9.41.
To “TGTACATTCGGAGTAAAAAAAAATTTATACAATTAC [CACACA_negctrl_site1451]” belongs 6.69.
In the case of “AACAGATAAAAGGGTACACACATATATACCTGTACA [CACACA_site4285]”, the “gcPBM binding intensity (ln)” value was 7.2.
Consider “TGTATTAAATTTTGAACACACAAAATAAAACATATA [CACACA_site1672]”, for which the “gcPBM binding intensity (ln)” value was found to be 6.97.
On to “TTTCAAAAAAATAGCTATATTTATATTAATGCACGA [TGCATGCA_negctrl_site63]”, for which the “gcPBM binding intensity (ln)” value worked out at 9.71.
The value for “TAATAAAAATAAAATTGTACTAATAACATTTCATTA [XGTACX_site3703]” was 6.68; that for “TATATAACTGTCTTCAGTACACAATAAATAAAAATA [XGTACX_site8856]” was 6.95; that for “AAAGGTGTATATAATACACACGTGTGATTAAAATTG [CACACA_site8104]” was 6.81.
To “AACTTTGAGACATAGTGTACTTACACAATCTTAATA [XGTACX_site3712]” belongs 6.85.
For “ACATTTTTTTTTTTTTTTCTTTTTCTTTTTCTTTTT [CACACA_negctrl_site1295]”, the “gcPBM binding intensity (ln)” value stood at 6.98.
To “CATATTTGATACAAGTGTACTTTATTTAAAAATTCT [XGTACX_site8408]” belongs 7.12; to “TCGTATCTATTGAGGGTGCCTCTATAATTGATACAA [GTGCAC_site9636]”, 8; to “AACCTAAGCATTCTTCAAATTATATATGTAAAATGA [CACACA_negctrl_site261]”, 6.87.
The value for “TAATATAATATATGCACACAAATATGTATTTATGTG [CACACA_site5210]” was 7.07; that for “GAAAAAATAAAATAAAGTACATAACTATAATAAAAA [XGTACX_site4807]” was 7.03; that for “CTTACACCCATATATACACACATGTATATTTTATAT [CACACA_site4462]” was 7.23.
For the sequence “TACTCCTCAATATTATGTACATATAATAGTTATAAA [XGTACX_site8551]”, the “gcPBM binding intensity (ln)” value is 7.11.
To “ATATATAAACACTCTTGTACATAATAATGTATATAT [XGTACX_site2451]” belongs 7.11; to “ACGCACGAAATAAATACATGCATATTGTAAAAATTA [TGCATGCA_site310]”, 7.26; to “GGGAATATATTCAATTGTACATTCTTATTTTATCCA [XGTACX_site8480]”, 6.8.
On to “TCTTTTTTTTTACATACTTTTTTCCTTTTTTTTTTA [CACACA_negctrl_site1429]”, for which the “gcPBM binding intensity (ln)” value was 6.86.
To “TATTTAATGCAAAAACGTACATAAATAACATTCACA [XGTACX_site5356]” belongs 7.05.
To “TATATATATATTAGTGGTACAAGATTTTTTTCTTTT [XGTACX_site4619]” belongs 8.68.
Regarding “TATAAACACCCATATAAACACACATACATACATACA [CACACA_site8791]”, the “gcPBM binding intensity (ln)” value was found to be 8.18.
Take “TCTTGTAGATATATTTGTACATATATTTATGGGTAT [XGTACX_site1139]”: the “gcPBM binding intensity (ln)” value amounted to 7.24.
The value for “CTAGACTTTTTACAATGTACATATTTATGTATTATT [XGTACX_site1833]” was 7.01; that for “TTTTTTCATAAATAATGTACATATATATATATATAT [XGTACX_site3620]” was 9.46.
Consider “ATATTATTTATAAGTTGTACGGTATAATATAATATA [XGTACX_site5371]”, for which the “gcPBM binding intensity (ln)” value came out at 7.07.
“AAAAAATATATATTAACACACACACTAATAAAAAAA [CACACA_site8366]”: the “gcPBM binding intensity (ln)” value was 6.96.
To “AAAATTTTTTACTTTACACACATTTTGTATATTTTG [CACACA_site1730]” belongs 6.92; to “GTTCAAAATATGAACACACACATATATATATATATA [CACACA_site2057]”, 9.37; to “ATCTACATATATTATTGTACATTGTTAAAAATTTAT [XGTACX_site7769]”, 7.04.
The value for TTTCGTAATATGCGTGTGCACAATGAGTCCATATCT was 8.8; that for “TTTTTTTTTTTTTGGGGTACATTTTAATTAATATTA [XGTACX_site4866]” was 7.11.
To “TAAAATATAATTAGCACACATATATAAAATATATAT [CACACA_site4093]” belongs 6.85.
For “ATATATTGTATGTGCTCACACATGTTTCGATATTAT [CACACA_site4336]”, the “gcPBM binding intensity (ln)” value is 6.98.
To “GTTGTTTCTATAAATTGTACTTAAATATAATTATAT [XGTACX_site585]” belongs 7.62.
“GTAAATATGTTTATTAGTACACATATGAAAATAAAT [XGTACX_site5820]”: the “gcPBM binding intensity (ln)” value was determined as 7.22.
“TAGAAACTATGTAATGCACACCAAAATAAAATTATT [CACACA_site8578]”: the “gcPBM binding intensity (ln)” value was determined as 8.06.
To “TTTTGGATACTTCATTTGTCCTGTTTTTTTTTTTTA [CACACA_negctrl_site399]” belongs 6.7; to “TTTTAAAAAATAAAATATTATTGAAGTAAAATATGA [CACACA_negctrl_site758]”, 6.98; to “AAAATATATCAAAACACACTCACATATAATACTTAC [CACACA_site6031]”, 6.98.
“TATATACTTATATACTGTACTCATCATCTTTTAAAG [XGTACX_site6099]”: the “gcPBM binding intensity (ln)” value came out at 6.98.
“TAATATATCTATAATACACACTATTCTAATCACATA [CACACA_site6731]”: the “gcPBM binding intensity (ln)” value stood at 6.95.
“TTTTTTTTTTTTTAAACATGCAAAATATATAATTTT [TGCATGCA_site633]”: the “gcPBM binding intensity (ln)” value is 7.11.
As to “AACACACACATATATATATATATATATATATATATA [GTGCAC_negctrl_site573]”, the “gcPBM binding intensity (ln)” value stood at 9.64.
The value for “TTTTTAATATTGTATGCATGTCGTAATAAAAAATTT [TGCATGCA_site259]” was 7.17; that for “ATAATAAACATATATGTACACACATATACATATATA [CACACA_site8924]” was 7.19; that for “TTGAACCCCACTAACACACACACGCACGCTCAGAAA [CACACA_site2983]” was 6.96.
To “ATATTAATTATAACTTGTACGTAAAAGGAAAACAAT [XGTACX_site3269]” belongs 7.35.
With “TGCTATTTCATATTCTGTACTAAAACAAGATAATAA [XGTACX_site3852]”, the “gcPBM binding intensity (ln)” value stood at 7.47.
The value for “ATATATATATATAGAAGTACTCTTATATATTTTATA [XGTACX_site1384]” was 9.26; that for “AAAAAAAAAAAAAATACACACACATAAAAAAAAAAA [CACACA_site8555]” was 7.35.
As to “GATATGGAATATATGTGTACATATATATATATTATA [XGTACX_site1724]”, the “gcPBM binding intensity (ln)” value turned out to be 7.23.
To “CAAATTTTTAAAAATGCATGTTCATCCATCCCATAT [TGCATGCA_site467]” belongs 6.87; to “TTTGTATGATCATAAAGTACTAATTTACATTCAGCA [XGTACX_site8596]”, 6.91.
Consider “TTTTCATTCTTATATAAATATTATTTTATATAAAAT [GTGCAC_negctrl_site674]”, for which the “gcPBM binding intensity (ln)” value was 6.88.
To “ATATATGAAAATATATGTACACAACATATAAAATAG [XGTACX_site5132]” belongs 7.33; to “AATTATATACCATGCACACAAATATTCATACAGGAA [CACACA_site4057]”, 7.59; to “AAAAATATATATATATTTCTTCTTTGTTAAAATGTA [CACACA_negctrl_site1459]”, 6.86.
As for “GTAGAATCAGTATTCACACATAAATGTATCCAAATG [CACACA_site5395]”, the “gcPBM binding intensity (ln)” value is 6.92.
“ATTTATATAAAATTAAAATAATACAAATTTATTCAT [GTGCAC_negctrl_site305]”: the “gcPBM binding intensity (ln)” value was 6.73.
On to “TTTTCGCTTTTATAAAATTATATGAAAAAACTAAAA [XGTACX_negctrl_site139]”, for which the “gcPBM binding intensity (ln)” value came to 6.99.
The value for “TTATGGAAAAATATAACACACAATGATTTTTTATAA [CACACA_site1831]” was 6.8; that for “TGTAATACATGTTGTTGTACAATATCTTTAACTTTT [XGTACX_site1219]” was 6.85; that for “TATTGTAAAAAAGCAAAATTTATCACCTCCTTATTT [CACACA_negctrl_site172]” was 6.72.
As for “TATAACTATGGGTGTACACATTAATCGTTTTTCTTT [CACACA_site5196]”, the “gcPBM binding intensity (ln)” value amounted to 6.95.
To “TACACAAAAATAAACACACACACATATAAATAAATA [CACACA_site6599]” belongs 7.04; to “CCACTAAAGGCATATACACACATTTTTTAAATTGCC [CACACA_site2839]”, 7.
As to “TTTTTTACATTCTGCACACAATTTATTTTTTTTTTT [CACACA_site4188]”, the “gcPBM binding intensity (ln)” value turned out to be 7.08.
For “ATGAATGAATACGTTTTACACACTTGAATATAATTT [CACACA_site8237]”, the “gcPBM binding intensity (ln)” value was found to be 6.85.
For the sequence “TATTTCACAAAAAAAAAAAAAAAAAAGAAGCAAAAA [CACACA_negctrl_site1040]”, the “gcPBM binding intensity (ln)” value was found to be 6.76.
To “AACATAACAAAAAAAAAAAAAAATATATATATATAT [TGCATGCA_negctrl_site370]” belongs 9.43; to “GTATATTGTACCATCACACATGTAAAACATAGATGT [CACACA_site5359]”, 7.17.
The value for “TCCTTAAAAAAACCTTAACACACATAAACTATAATT [CACACA_site9001]” was 6.91.
